Measured values reported in patent US20150087809A1.
Read-outs that look alike come from different tables or passages of the source.

Molecular target: HLA-A2 type molecule (product of the HLA-A*0201 gene) (human)
Assay: flow cytometry; reassociation on acid-stripped JY cells with added b2m, mAb BB7.2
[1] = remark: other sources report otherwise

| Binder | -log Kd | -log Kd [1] |
| --- | --- | --- |
| VILDSFEPL (modifications not checked) [SEQ ID NO 162] | 5.39 -log Kd (M) | – |
| RALAHGVRV (modifications not checked) [SEQ ID NO 135] | – | 5.28 -log Kd (M) |
| YSPGEINRV (modifications not checked) [SEQ ID NO 141] | 6.05 -log Kd (M) | – |
| CMSADLEVV (modifications not checked) [SEQ ID NO 146] | – | 4.81 -log Kd (M) |
| KLLPRLPGV (modifications not checked) [SEQ ID NO 124] | 6.71 -log Kd (M) | – |
| VLDDHYRDV (modifications not checked) [SEQ ID NO 152] | 6.51 -log Kd (M) | – |
| AILSPGALV (modifications not checked) [SEQ ID NO 131] | – | 6.24 -log Kd (M) |
| YTNVDQDLV (modifications not checked) [SEQ ID NO 142] | 5.68 -log Kd (M) | – |
| KQAEAAAPV (modifications not checked) [SEQ ID NO 150] | 5.42 -log Kd (M) | – |
| VLADFKTWL (modifications not checked) [SEQ ID NO 170] | 6.02 -log Kd (M) | – |
| LSDGSWSTV (modifications not checked) [SEQ ID NO 136] | 6.22 -log Kd (M) | – |
| WLRDVWDWI (modifications not checked) [SEQ ID NO 179] | 5.68 -log Kd (M) | – |
| DVWDWICTV (modifications not checked) [SEQ ID NO 133] | 4.98 -log Kd (M) | – |
